# Reference: the supplement of paper PMC3334620
# Over roughly 33,000 sequences, “E-score (-0.5 to 0.5)” has its median near -0.017; the highest 2% begin near 0.3. The list shows a part of the results.
# Target: T1, Sut1 (UniProt P53032)
# T1 sequence: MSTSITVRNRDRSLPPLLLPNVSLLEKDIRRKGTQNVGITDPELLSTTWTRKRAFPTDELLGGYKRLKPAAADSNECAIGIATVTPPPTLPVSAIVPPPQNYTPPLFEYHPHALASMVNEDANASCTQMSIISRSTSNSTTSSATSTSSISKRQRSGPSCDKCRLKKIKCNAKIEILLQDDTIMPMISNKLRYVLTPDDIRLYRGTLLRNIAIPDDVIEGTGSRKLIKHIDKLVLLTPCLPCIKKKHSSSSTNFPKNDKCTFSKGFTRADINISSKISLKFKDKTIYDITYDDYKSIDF
# Assay: PBM E-score (8-mer binding enrichment) (E-score (-0.5 to 0.5)); higher = stronger / more preferred TF binding; most listed sequences are background and not binding sites
# Settings: protein concentration: 200 nM; construct: GST-full length
# Procedure, shortened: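 Masliner-normalised scans of fluorescent anti-GST signal were the basis for scoring. That signal came from GST-tagged yeast transcription factors applied at about 100-200 nM to double-stranded universal all-10-mer Agilent arrays on fresh or once-stripped slides. Each ungapped eight-base word, pooled with its reverse complement, received an E-score from the Universal PBM Analysis Suite.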
row,Sequence,PBM E-score
1,GTGCGGGA,-0.0127
2,AAGCGGTG,-0.244
3,AAGGTATT,0.199
4,CCCATGAC,-0.149
5,CAATAGTC,-0.0228
6,ACCGGATA,0.0607
7,AAAACGTT,0.165
8,ATGTTACC,0.108
9,CTAATGAG,-0.0573
10,ATAGCACG,-0.00069
11,CCGCACGA,0.0172
12,AGTGCGCG,-0.0893
13,GTGATCAA,0.0378
14,AGCTCATA,0.0944
15,TTCGTAAA,0.232
16,AGGGAGCA,-0.209
17,AGCATTGA,-0.0961
18,ACACAACT,-0.0304
19,AAGCACTT,-0.0445
20,AGAGCCAC,-0.0775
21,AAGAGGCG,-0.0418
22,CTGTAGGA,-0.0619
23,CGTGACCA,-0.0488
24,GCCTAGCC,-0.0647
25,GCCCGTGA,-0.233

row,Sequence,PBM E-score
1,AATAGTCG,0.0508
2,GCGAGCCC,-0.231
3,CCTAGATA,-0.0911
4,CGGTAACA,0.277
5,CTTTATGC,0.165
6,GCGTTAAC,0.0954
7,TTGTAAAA,0.134
8,ACATCGAG,-0.206
9,ACAGAAAT,0.172
10,TCGAAGAA,0.0128
11,CCCAGTAA,0.0903
12,ACCTGTAA,0.092
13,AGGCTCAT,-0.164
14,ACCAGAAA,0.107
15,AAGTGCAT,-0.0225
16,ACTATCTG,-0.188
17,CCCTCCAA,-0.311
18,AAGTTAGA,0.124
19,ACAAGGAG,0.0941
20,ATTCGCAG,0.0734
21,ACAAGATG,-0.13
22,CTTAAAAG,-0.0247
23,TAATCCGA,0.15
24,CGAGATAG,-0.203
25,CCATACAC,-0.0321

row,Sequence,PBM E-score
1,AAGCCACG,-0.136
2,AGCGCGAG,-0.12
3,AACGGCTG,-0.0244
4,AAATTGGC,0.022
5,ATCACGTA,0.0676
6,GCCACACC,-0.144
7,ATTTGTAG,0.173
8,GCACGTCA,-0.189
9,CCTACAAC,0.0308
10,ATGATTTG,0.0236
11,CATGTTAG,-0.115
12,AGCCGGCA,0.0847
13,AGCCAACA,-0.00424
14,ATCTCAGG,-0.0305
15,AGAGCGAT,-0.232
16,ACGCGTGC,-0.0211
17,AGGGTGGG,-0.257
18,ACCAAAGC,0.0336
19,CACTTTGA,-0.0703
20,TAGGCATA,-0.0382
21,GCATTGGC,-0.247
22,GCAATGTA,-0.0868
23,ACCCCTGC,-0.277
24,CGAATTTA,0.163
25,AAGCGCCT,0.0123

row,Sequence,PBM E-score
1,GAGGGCCC,-0.227
2,GCCTGCCC,-0.204
3,TATTATGA,0.14
4,CTGAGTTA,-0.126
5,AACCGCGG,0.191
6,ATTGGATC,0.0622
7,CGGGAGGC,-0.343
8,ACTAATCC,-0.0921
9,TGGTACAA,-0.0495
10,CTCACGAA,-0.0346
11,AAATTGAA,0.164
12,AGGAGGGG,-0.312
13,GCACATTA,0.0689
14,AACTCGCA,-0.0368
15,AAGAGAAC,0.145
16,CCTAGCCA,-0.0454
17,ATATGGGA,-0.0229
18,CCATGGAG,-0.174
19,CAAAGAAG,0.0747
20,AGCGGGTC,-0.382
21,GACAGAAA,0.0406
22,GACAGCAC,0.0796
23,AGGCAGGA,-0.157
24,GTGCCGAA,0.0728
25,CGCAGCAG,-0.118

row,Sequence,PBM E-score
1,AGTTGTAC,0.0803
2,CGAGAGTC,0.00333
3,AAGAACAG,0.0328
4,ATCTGTCC,-0.124
5,AAGGAAAT,0.0288
6,CGGCTTAC,-0.085
7,ACTCCTCT,0.0793
8,CATACTAA,0.0669
9,CTGGGCAC,-0.224
10,CTATTCTC,0.0613
11,ACTGATAA,0.255
12,CCGACGTC,0.106
13,TAGAGATA,0.106
14,AACCCCGT,0.283
15,ACACTTAA,0.17
16,ATGTAGGG,-0.0734
17,CTTGCTAC,-0.169
18,ACTGGATA,0.228
19,AGTTAATG,0.193
20,ACGTGGTC,-0.214
21,CCCACGCA,-0.19
22,ATTAATCC,0.153
23,TCTGCTAA,-0.0838
24,CATCGCGC,-0.113
25,AATAATAG,0.157

row,Sequence,PBM E-score
1,GCCTACGC,-0.161
2,CTCGCAAC,-0.0447
3,CAAAAAAG,0.105
4,ACGTGGTA,-0.02
5,AAAGTATG,0.0484
6,GATACCAA,0.0117
7,CTTGACGA,-0.15
8,CGAGTCGA,-0.0446
9,TCGTTTCA,0.182
10,CGGGAGAG,-0.0788
11,ACATTGCC,-0.128
12,GATACTCC,0.148
13,AGCGAATC,0.078
14,AAACAGTC,-0.179
15,CAGTATAA,0.179
16,GCCTAGAC,-0.146
17,CACGACAG,-0.038
18,GCCTATTA,0.0384
19,CCCTGGAC,-0.176
20,AATTCTCC,0.244
21,CATGAACA,0.0319
22,ACAGACGT,-0.113
23,GCCACCCC,-0.354
24,CATTGATA,0.139
25,TGAAGTCA,-0.161

row,Sequence,PBM E-score
1,CACATATA,0.07
2,AATATTGG,0.113
3,CGGATGCC,0.0144
4,AGCCCGTC,-0.334
5,AAAACGAA,0.234
6,AATGGTTG,0.0702
7,ATTCGCAC,0.0557
8,CGTTAGAC,-0.117
9,AGTATGAG,-0.0279
10,CAAACTCG,-0.013
11,AGGCCGCG,-0.199
12,GAACGGAA,0.166
13,CAAATGAG,0.0597
14,ACCGGAAT,0.204
15,GATAGAGA,0.101
16,AGGTGCGG,0.0805
17,TATATAGA,0.278
18,AAGACAGA,0.146
19,AAACATTT,0.222
20,GGTGCACA,-0.261
21,ATCGAAAG,0.113
22,ACGTGGCG,-0.258
